The values below come from ChEMBL document CHEMBL4888484, “Replenishing the malaria drug discovery pipeline: Screening and hit evaluation of the MMV Hit Generation Library 1 (HGL1) against asexual blood stage Plasmodium falciparum ,using a nano luciferase reporter read-out” (2022).

The whole screen tested about 150,000 compounds, of which about 540 (0.36%) showed an effect of 50% or more. This is one part of the list.

This experiment relates to Plasmodium falciparum. The experiment in a line: Primary screen in NF54 nanoGlo assay, in single point, at 2uM, 72h; a lower Z score goes with more inhibition. It counts as functional, Erythrocyte. The settings on record: timepoint 72 hour.
The % Inhibition is the change of the read-out against control, counted positive when it falls. `O[C@H]1Cc2ccccc2[C@H]1n1ccnc1-c1ccccc1Cn1cccn1`: the “% Inhibition” value was -7% and the Z score is 0.77.

As to `CC(C)[C@@H]1CN(C(=O)c2ccc(-n3cnnc3)nc2)CCCN1CC1CC1`, the “% Inhibition” value is -4% and the Z score is listed as 0.62.

Regarding `Cc1nc(N)sc1CC(=O)N(C)CC1CCCC1`, the “% Inhibition” value was found to be 0% and the Z score is reported as -0.08.

In the case of `COCC1CN(C(=O)NCC2CCC(F)(F)CC2)CC(C)O1` (centres undefined), the “% Inhibition” value is -2% and the Z score is 0.34.

As to `Cc1cc(C#N)ccc1N(C(=O)c1sc(-c2ccccc2)nc1C)C1CC1`, the “% Inhibition” value is -20% and the Z score was determined as 2.08.

In the case of `Clc1cnc(OCC2CC=CC2)nc1`, the “% Inhibition” value is -11% and the Z score turned out to be 1.55.

With `COc1cccc(NCC(=O)Nc2ncc(Cc3c(Cl)cccc3Cl)s2)c1`, the “% Inhibition” value is 24% and the Z score is -2.77.

As to `CN(Cc1ccc(Cl)s1)[C@H]1CCN(CC(F)(F)F)C1=O`, the “% Inhibition” value is -8% and the Z score amounted to 1.15.

For the compound `Cc1ccncc1C(=O)N1C[C@@H]2CC[C@H]1CN(Cc1ccccn1)C2`, the “% Inhibition” value is -7% and the Z score came to 0.77.

`Cc1cccc(N2CCN(c3ccc(NS(=O)(=O)c4cc(C)ccc4C)cc3C(=O)O)C[C@@H]2C)c1`: the “% Inhibition” value is -10% and the Z score was determined as 0.94.

In the case of `CCn1cc(C(=O)OC[C@@]2(C)CCCO2)cn1`, the “% Inhibition” value is 6% and the Z score is listed as -0.82.

On to `Cc1cccc(C2CCC(C(=O)NCC3CC3)CN2C(=O)c2ccc(F)cc2)c1` (centres undefined), for which the “% Inhibition” value was -13% and the Z score turned out to be 1.27.

Consider `COc1ccccc1N1CCN(C(=O)c2scc3c2OCCO3)CC1`, for which the “% Inhibition” value is -7% and the Z score is 1.28.

On to `CCn1nc(C(=O)N[C@H]2CON(C(=O)OC(C)(C)C)C2)cc1C1CC1`, for which the “% Inhibition” value is given as -6% and the Z score was 0.94.

`CC(C)(C)n1nccc1NC(=O)N[C@@H]1CCC(=O)N[C@H]1C1CCCO1` (some centres undefined): the “% Inhibition” value was 0% and the Z score is on record as -0.02.

As for `CCNc1cc(N2CCN(C(=O)Cc3noc4ccccc34)CC2)nc(C)n1`, the “% Inhibition” value is -10% and the Z score is 1.75.

For `Cc1ccc2c(C)cc(NC[C@@](C)(O)CCCO)nc2c1C`, the “% Inhibition” value is -12% and the Z score is recorded as 1.53.

Consider `COCCN1C(=O)Cc2ccccc2[C@@H]1C(=O)N1CCN(c2cccc(C)c2)CC1`, for which the “% Inhibition” value was 7% and the Z score is reported as -1.07.

In the case of `Cc1nccnc1-c1ccn(CC(=O)Nc2nn(C)c3ccccc23)n1`, the “% Inhibition” value is recorded as -3% and the Z score was 0.43.

With `CCN1C[C@H](CN(C)C(=O)c2ccc(OC)nc2)Oc2ccccc21`, the “% Inhibition” value is listed as 1% and the Z score is on record as -0.17.

Take `N#Cc1nccnc1NC[C@@H](O)Cc1ccccc1`: the “% Inhibition” value was 0% and the Z score was determined as 0.02.

For the compound `CC(C)c1cnc(NC(=O)N[C@H]2CCCc3occc32)s1`, the “% Inhibition” value was 3% and the Z score was -0.51.

With `CCN1C(=O)CO[C@H](C(=O)N2CC(c3ccc(F)cc3)C2)[C@H]1c1cnn(C)c1`, the “% Inhibition” value is -6% and the Z score was 0.61.

Consider `COc1ccc([C@@]2(C)NC(=O)N(Cc3cc(C)on3)C2=O)cc1OC`, for which the “% Inhibition” value is listed as -4% and the Z score is given as 0.5.

With `O=C1NCCN2CC3(CCN(S(=O)(=O)c4cccc(F)c4)CC3)C[C@@H]12`, the “% Inhibition” value was -10% and the Z score was 2.02.

Turning to `c1ccc2c(c1)CCC(N1CCCNCC1)CC2`, the “% Inhibition” value worked out at 6% and the Z score is reported as -0.89.

Turning to `O=C(CCC(F)(F)F)NCCn1ccnn1`, the “% Inhibition” value is given as -23% and the Z score is given as 2.34.

In the case of `Fc1cccc(OCCN2CC(c3nc4ccccc4s3)C2)c1`, the “% Inhibition” value is 11% and the Z score is on record as -1.43.

As for `COc1cc(NC(=O)CNCCN2CCOC2=O)ccc1Cl`, the “% Inhibition” value is on record as -5% and the Z score is on record as 0.51.

Take `COC(=O)c1cncc(N2CCCN(C(=O)OCC(C)C)CC2)n1`: the “% Inhibition” value is listed as -32% and the Z score is on record as 3.79.

Regarding `[O-][S+]1CCN(c2nc3cc(C(F)(F)F)ccc3s2)CC1`, the “% Inhibition” value turned out to be 0% and the Z score is recorded as -0.05.

`CCN1CCN(C(=O)c2cc(Br)cn2C)C[C@@]12CCOC2`: the “% Inhibition” value is given as -7% and the Z score worked out at 1.13.

As for `O=c1[nH]c(COc2ccc(F)cc2)nc2cc(F)c(F)cc12`, the “% Inhibition” value is on record as 30% and the Z score was -3.36.

As to `COc1ccc(Cl)cc1NC(=O)Cn1c(C)ncc(C(=O)NC2CC2)c1=O`, the “% Inhibition” value is reported as 0% and the Z score amounted to 0.04.

Turning to `C[C@@](CO)(NC(=O)c1oc2ccccc2c1Cl)C1CC1`, the “% Inhibition” value was -6% and the Z score is 1.2.

Take `CCc1n[nH]cc1C(=O)N[C@H]1C[C@H](c2cc(=O)[nH]c(C3CC3)n2)C1`: the “% Inhibition” value was -20% and the Z score is 3.14.

Regarding `CC(C)C(=O)N1CCc2ccc(C(=O)NC3CC3)cc21`, the “% Inhibition” value is -11% and the Z score was 1.26.

Regarding `CN(Cc1ccccc1)Cc1cc(=O)[nH]c(N2CCN(C(=O)c3ccco3)CC2)n1`, the “% Inhibition” value is given as -9% and the Z score is given as 1.42.

For `C#Cc1cccc(NC(=O)c2ccc(-n3ccnc3)nn2)c1`, the “% Inhibition” value is recorded as -4% and the Z score was 0.67.

As to `Cc1ccsc1-c1noc([C@@H]2COCCN2C)n1`, the “% Inhibition” value amounted to 87% and the Z score is recorded as -14.98.

As to `O=C(Nc1ccccc1)c1nnc(C(=O)N2CCC[C@H](C(=O)NCc3ccccn3)C2)s1`, the “% Inhibition” value is -23% and the Z score was 2.03.

For `COC(=O)c1cc(C2CC2)nc2c1c(=O)n(Cc1ccccc1C)c(=O)n2-c1ccccc1OC`, the “% Inhibition” value turned out to be 5% and the Z score is listed as -0.77.
